# PubChem BioAssay AID588591 (National Center for Advancing Translational Sciences (NCATS), 2011)
# Several values for one entry are separate records, joined by “and”; a condition that tells them apart may be missing. Identical values can stand only once. Among all 390,000 compounds or so, about 4,700 (1.2%) were called active. The inconclusive results got no clear call from the source; some entries with a clear call stand among them for comparison. Calls come from the whole dose curve; as a rule, active = well fitted inhibition curve with a large enough effect; inconclusive = small, poorly fitted or top-dose-only effect, or another doubt; inactive = no such curve, though single readings can be large or run the other way. Potencies of inconclusive entries are doubtful fits and often do not repeat. A structure can be active in one record and inactive in another.
# Molecular target: DNA polymerase eta (Homo sapiens) (UniProt Q9Y253)
# Assay: qHTS for Inhibitors of Polymerase Eta
# Details: recombinant Pol eta, fluorescent DNA replication assay; series mostly up to 114 µM; activity change, negative = inhibition: at the top concentration
# Summary of the method: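 Pol eta at 10 nM preincubated with compounds 15 min at room temperature; reaction started with fluorescent substrate (50 nM final) and read kinetically at 0 and 10 min.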
# % is set by controls: 0 for no effect and ±100 for the full control effect; potency is the fitted concentration of half-maximal effect; tags give direction and shape of the fitted curve.
# Chain of UniProt Q9Y253 (Q9Y253 whole entry, looked up): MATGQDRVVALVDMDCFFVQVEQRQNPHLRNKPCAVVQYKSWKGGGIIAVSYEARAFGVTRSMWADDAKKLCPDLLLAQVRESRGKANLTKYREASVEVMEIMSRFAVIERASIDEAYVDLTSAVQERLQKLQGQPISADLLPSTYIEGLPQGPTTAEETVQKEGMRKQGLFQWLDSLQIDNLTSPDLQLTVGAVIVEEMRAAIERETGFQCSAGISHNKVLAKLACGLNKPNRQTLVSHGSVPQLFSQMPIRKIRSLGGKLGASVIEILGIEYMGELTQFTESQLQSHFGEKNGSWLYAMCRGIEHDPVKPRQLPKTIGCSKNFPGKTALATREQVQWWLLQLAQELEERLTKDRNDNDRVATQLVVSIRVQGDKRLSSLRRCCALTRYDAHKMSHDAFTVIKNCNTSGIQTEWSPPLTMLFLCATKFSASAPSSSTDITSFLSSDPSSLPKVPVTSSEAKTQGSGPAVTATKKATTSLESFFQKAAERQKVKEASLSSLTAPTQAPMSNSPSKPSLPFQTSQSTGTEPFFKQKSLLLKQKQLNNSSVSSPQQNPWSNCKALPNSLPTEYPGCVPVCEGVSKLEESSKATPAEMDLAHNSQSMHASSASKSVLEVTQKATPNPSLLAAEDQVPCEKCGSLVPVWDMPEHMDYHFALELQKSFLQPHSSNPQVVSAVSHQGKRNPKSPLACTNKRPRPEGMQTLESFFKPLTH
SMILES,Potency,"activity change, negative = inhibition"
COC(=O)C1=CN(c2cccc(C)c2)C=C(C(=O)OC)C1c1cc(OC)c(O)c([N+](=O)[O-])c1,"inconclusive: 35.5 µM [inhibitor, full curve]",
O=C(CSc1cn(CCNC(=O)c2c(F)cccc2F)c2ccccc12)Nc1ccc2c(c1)OCCO2,,inactive: -5.37%
CCOc1cccc(CC(=O)N2CCc3c([nH]c4ccccc34)C2c2ccc(F)cc2)c1OCC (stereo not drawn),,inactive: -20.2%
CCOc1ccc(N(CC)S(=O)(=O)N2CCCC(C(=O)NCc3ccccc3Cl)C2)cc1 (stereo not drawn),,inactive: -6.21%
Cc1cc(NS(=O)(=O)c2ccc(NC(=S)NC(=O)/C=C/c3ccccc3)cc2)no1,"inconclusive: 89.1 µM [inhibitor, partial curve, poor fit]",
Cc1cc(N2CCCCC2)nc2ccc(NC(=O)/C=C/c3ccccc3OC(C)C)cc12,,inactive: -13.5%
CCOC(=O)c1cc(C#N)c(N2CCN(c3ccccn3)CC2)nc1-c1ccccc1,,inactive: -0.534%
N#C/C(=C(/O)CN1CCOCC1)c1nc(-c2ccccc2)cs1,,inactive: -1.49%
O=C(COc1ccc(S(=O)(=O)NC2CCCCC2)cc1)Nc1ccc(C(F)(F)F)cc1,,inactive: -15.2%
N#C/C(=C/C1=C(N2CCOCC2)C(=C/c2ccccc2)/CC1)C(=O)Nc1ccccc1F,"inconclusive: 44.7 µM [inhibitor, partial curve, poor fit]",
CN(C)c1cc(O)c(C(=S)Nc2ccccc2)c(N(C)C)c1,"inconclusive: 12.6 µM [inhibitor, partial curve, poor fit]",
COc1cc(/C=C2/C(=O)ON=C2C)cc(Cl)c1O,,inactive: -19.3%
COc1cccc(NC(=O)Cn2cc(S(=O)(=O)N3CCCC3)c(S(=O)(=O)N3CCCC3)c2)c1,active: 89.1 µM,
Cc1ccc(NC(=O)CCNC(=O)c2ccc(Cl)cc2)nc1,,inactive: 11.4%
CN(C)c1ccc(C=c2c3cc([N+](=O)[O-])ccc3n3c2cc(-c2ccccc2)[n+]3C)cc1,,inactive: 0.333%
CCN(CC)CCNC(=O)c1ccc(NC(=O)Nc2cccc3ccccc23)cc1,"inconclusive: 50.1 µM [inhibitor, partial curve, poor fit]",
O=C(NCCCN1CCOCC1)c1cccc(S(=O)(=O)NCc2ccccc2)c1,,inactive: -14%

SMILES,Potency,"activity change, negative = inhibition"
Cc1ccc(C(=O)COC(=O)C(CC(C)C)NC(=O)C2CCC(C)CC2)cc1 (stereo not drawn),,inactive: -5.17%
CCOc1ccc(-c2nnc(SCC(=O)NCCC(C)C)nc2-c2ccc(OCC)c(OC)c2)cc1OC,,inactive: -13.2%
COc1cc(Br)c(/C=C(\C#N)c2nc3ccccc3[nH]2)cc1OC,,inactive: -21.3%
O=C(COc1ccc2ccc(=O)oc2c1)Nc1cccc(S(=O)(=O)N2CCCCC2)c1,"inconclusive: 25.1 µM [inhibitor, partial curve, poor fit]",
Cc1ccc(S(=O)(=O)N2CCN(Cc3cccc(F)c3)CC2)cc1,"inconclusive: 89.1 µM [inhibitor, partial curve, poor fit]",
CO/N=C(\C(=O)N[C@@H]1C(=O)N2C(C(=O)O)=C(COC(C)=O)CS[C@H]12)c1csc(N)n1 (stereo in doubt),inactive and active: 20 µM and active: 28.2 µM,
O=C1N=C(N2CCCC2)S/C1=C\C=C\c1ccccc1,"inconclusive: 56.2 µM [inhibitor, partial curve]",
O=C(Cc1cccs1)N1CCN(c2ccc([N+](=O)[O-])cc2)CC1,active: 79.4 µM,
Cc1cc[n+](-c2[nH]c(=O)sc2/C=N/NC([S-])=Nc2ccccc2)cc1C,"inconclusive: 20 µM [inhibitor, full curve, poor fit]",
O=C(c1ccco1)[C@@H]1[C@@H]2C(=O)N(c3ccc(Br)cc3)C(=O)[C@@H]2C2c3ccccc3C=CN21 (stereo partly drawn),"inconclusive: 10 µM [inhibitor, partial curve, poor fit]",
COc1ccccc1N1CCN(C(CNC(=O)C(=O)NCCCN(C)C)c2cccnc2)CC1 (stereo not drawn),,inactive: -19.7%
N/C(=N\OC(=O)Cc1cccs1)c1ccccc1,active: 15.8 µM,
Cc1[nH][nH]c(=O)c1C(c1ccc(N(C)C)c(Br)c1)c1c(C)[nH][nH]c1=O,,inactive: -11.2%
Cc1cccc(NC(=O)CSc2nc3ccc(NC(=O)c4ccco4)cc3s2)c1,"inconclusive: 100 µM [inhibitor, partial curve, poor fit]",
COc1cc(Cn2c(=O)sc3ccccc32)ccc1OC(C)C,"inconclusive: 79.4 µM [inhibitor, partial curve, poor fit]",
COC(=O)\C(C(C)=O)=C(/C=C/C=C/C=C/N(C)C)N(C)C,active: 2.82 µM,
